The record followed here is PubChem BioAssay (NCI).

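Values below derive from 48-hour exposures of cells grown in 96-well plates, with endpoints linearly interpolated between the two concentrations bracketing the appropriate inhibition level. Abbreviation: GI50, concentration required for 50% inhibition of growth. TGI: total growth inhibition.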

The test deals with NCI-H322M lung. Put plainly: NCI-60 cell line screen, 48 h.
In the case of `CN1CCc2c(sc3ncnc(N/N=C/c4cn(-c5ccccc5)nc4-c4ccc(Cl)cc4)c23)C1`, the GI50 was 0.318 µM and the TGI is over 100 µM.

Turning to `COc1ccccc1NC(=O)c1ccc(NC(=O)CCl)s1`, the GI50 is over 100 µM and the TGI is over 100 µM.

Consider `COc1ccc(NC2=C(I)C(=O)C(C)=C(C)C2=O)cc1`, for which the GI50 was 15.4 µM and the TGI was 30.1 µM.

As for `COc1sc(/C=N/NC(=O)c2[nH]c3ccc(Br)cc3c2-c2ccccc2)cc1Cl`, the GI50 was 4.18 µM and the TGI is over 100 µM.

In the case of `O=C(NN1C(=O)/C(=C/C=C/c2ccc([N+](=O)[O-])o2)SC1=S)c1ccccc1O`, the GI50 was 2.51 µM and the TGI is 7.95 µM.
